The list shows a part of the results. Sequences were assembled here from the parent chain. Values near 0.05 are background.
B1: TEV protease; numbered along this chain (parent)
chain: MGESLFKGPRDYNPISSSICHLTNESDGHTTSLYGIGFGPFIITNKHLFRRNNGTLVVQSLHGVFKVKDTTTLQQHLVDGRDMIIIRMPKDFPPFPQKLKFREPQREERICLVTTNFQTKSMSSMVSDTSCTFPSGDGIFWKHWIQTKDGQCGSPLVSTRDGFIVGIHSASNFTNTNNYFTSVPKNFMELLTNQEAQQWVSGWRLNADSVLWGGHKVFMVKPEEPFQPVKEATQL

Variants of: B1
Experiment: raw area under fraction-flipped curve 0-4 h after induction (AUC4h, not background-subtracted), DNA-recorder readout of cleavage of the substrate (dimensionless); higher = more cleavage of the substrate by the protease variant
Details: temperature: 34 °C; time window: 0-4 h after rhamnose induction
Description: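 In vivo DNA recorder in E. coli TOP10(DE3) ΔrhaA at 34 °C. Each TEVp single-site mutant (parent TEVp 0) is paired with a single-site variant of the 7-mer TEVs (canonical ENLYFQ|S). The substrate sits between flexible linkers in a Bxb1-sfGFP-TEVs-SsrA fusion, so cleavage stabilises Bxb1 and speeds flipping of a recombination array, read by NGS. The value is the raw area under the fraction-flipped curve over 0-4 h after rhamnose induction (AUC4h), with ≥20 reads per time point. It is not background-subtracted; inactive controls average about 0.047.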
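Further: Bxb1 expression induced with 0.2% (w/v) L-rhamnose at OD600 near 0.5, cultures sampled hourly, flipped fraction per protease–substrate barcode pair counted by paired-end Illumina sequencing.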

Variant: D149F
- area with substrate EALYFQS: 0.088
- area with substrate ECLYFQS: 0.0842
- area with substrate EGLYFQS: 0.0635
- area with substrate EHLYFQS: 0.0867
- area with substrate EILYFQS: 0.0749
- area with substrate EKLYFQS: 0.0476
- area with substrate ELLYFQS: 0.0773
- area with substrate EQLYFQS: 0.0785
- area with substrate ERLYFQS: 0.0683
- area with substrate EVLYFQS: 0.0664
- area with substrate EWLYFQS: 0.0785

Variant: D149W
- area with substrate EALYFQS: 0.101
- area with substrate EDLYFQS: 0.103
- area with substrate EGLYFQS: 0.0549
- area with substrate EHLYFQS: 0.0728
- area with substrate EILYFQS: 0.0445
- area with substrate EKLYFQS: 0.0712
- area with substrate EMLYFQS: 0.0557
- area with substrate EPLYFQS: 0.0817
- area with substrate EQLYFQS: 0.0681
- area with substrate ESLYFQS: 0.0462
- area with substrate ETLYFQS: 0.0553
- area with substrate EVLYFQS: 0.0612
- area with substrate EWLYFQS: 0.0816

Variant: I167P
- area with substrate EALYFQS: 0.0493
- area with substrate ECLYFQS: 0.0388
- area with substrate EELYFQS: 0.0393
- area with substrate EFLYFQS: 0.0357
- area with substrate EHLYFQS: 0.0537
- area with substrate EKLYFQS: 0.021
- area with substrate ELLYFQS: 0.0535
- area with substrate EMLYFQS: 0.0366
- area with substrate EQLYFQS: 0.0586
- area with substrate ESLYFQS: 0.0481
- area with substrate EVLYFQS: 0.0584
- area with substrate EWLYFQS: 0.0465
- area with substrate EYLYFQS: 0.0379

Variant: I167Q
- area with substrate EALYFQS: 0.0721
- area with substrate EHLYFQS: 0.0903
- area with substrate EILYFQS: 0.0795
- area with substrate EKLYFQS: 0.0751
- area with substrate EMLYFQS: 0.0969
- area with substrate ERLYFQS: 0.0721
- area with substrate ESLYFQS: 0.0714
- area with substrate EVLYFQS: 0.0806
- area with substrate EWLYFQS: 0.0739
- area with substrate EYLYFQS: 0.0746

Variant: I167L
- area with substrate EALYFQS: 0.0879
- area with substrate EELYFQS: 0.102
- area with substrate EGLYFQS: 0.0782
- area with substrate EHLYFQS: 0.0944
- area with substrate EILYFQS: 0.0922
- area with substrate EQLYFQS: 0.11
- area with substrate ERLYFQS: 0.0974
- area with substrate ESLYFQS: 0.0958
- area with substrate ETLYFQS: 0.106
- area with substrate EVLYFQS: 0.105
- area with substrate EWLYFQS: 0.0949

Variant: I167M
- area with substrate EALYFQS: 0.108
- area with substrate ECLYFQS: 0.0755
- area with substrate EDLYFQS: 0.107
- area with substrate EILYFQS: 0.0865
- area with substrate EKLYFQS: 0.0958
- area with substrate EMLYFQS: 0.117
- area with substrate ERLYFQS: 0.0761
- area with substrate ESLYFQS: 0.0861
- area with substrate EVLYFQS: 0.0763
- area with substrate EWLYFQS: 0.08

Variant: W141K
- area with substrate EALYFQS: 0.0548
- area with substrate ECLYFQS: 0.0608
- area with substrate EDLYFQS: 0.063
- area with substrate EGLYFQS: 0.0588
- area with substrate EHLYFQS: 0.055
- area with substrate EILYFQS: 0.0315
- area with substrate EQLYFQS: 0.0403
- area with substrate ERLYFQS: 0.0578
- area with substrate ESLYFQS: 0.0526
- area with substrate EVLYFQS: 0.0559

Variant: W141L
- area with substrate EALYFQS: 0.0641
- area with substrate EHLYFQS: 0.0569
- area with substrate EILYFQS: 0.0521
- area with substrate EMLYFQS: 0.0579
- area with substrate EPLYFQS: 0.0562
- area with substrate EQLYFQS: 0.047
- area with substrate ERLYFQS: 0.0857
- area with substrate ESLYFQS: 0.0639

Variant: Q151K
- area with substrate EALYFQS: 0.0698
- area with substrate ECLYFQS: 0.1
- area with substrate EDLYFQS: 0.116
- area with substrate EELYFQS: 0.0708
- area with substrate EHLYFQS: 0.087
- area with substrate EILYFQS: 0.0864
- area with substrate EMLYFQS: 0.0737
- area with substrate EPLYFQS: 0.103
- area with substrate EQLYFQS: 0.106
- area with substrate ERLYFQS: 0.0853
- area with substrate ESLYFQS: 0.0776
- area with substrate EWLYFQS: 0.06

Variant: S169H
- area with substrate EALYFQS: 0.0504
- area with substrate ECLYFQS: 0.0716
- area with substrate EELYFQS: 0.055
- area with substrate EFLYFQS: 0.0627
- area with substrate EHLYFQS: 0.0729
- area with substrate EILYFQS: 0.0554
- area with substrate EKLYFQS: 0.0698
- area with substrate ELLYFQS: 0.064
- area with substrate EMLYFQS: 0.0573
- area with substrate EPLYFQS: 0.0603
- area with substrate EQLYFQS: 0.0672
- area with substrate ERLYFQS: 0.05
- area with substrate ESLYFQS: 0.0641
- area with substrate EVLYFQS: 0.0873

Variant: S169V
- area with substrate EALYFQS: 0.0624
- area with substrate EDLYFQS: 0.0902
- area with substrate EGLYFQS: 0.0496
- area with substrate EILYFQS: 0.0593
- area with substrate EKLYFQS: 0.0386
- area with substrate EMLYFQS: 0.0465
- area with substrate EPLYFQS: 0.0624
- area with substrate EQLYFQS: 0.0846
- area with substrate ESLYFQS: 0.0462
- area with substrate ETLYFQS: 0.0578
- area with substrate EWLYFQS: 0.0716

Variant: Q146E
- area with substrate EALYFQS: 0.106
- area with substrate ECLYFQS: 0.0853
- area with substrate EDLYFQS: 0.111
- area with substrate EELYFQS: 0.133
- area with substrate EHLYFQS: 0.112
- area with substrate EILYFQS: 0.129
- area with substrate EKLYFQS: 0.109
- area with substrate EMLYFQS: 0.109
- area with substrate EQLYFQS: 0.109
- area with substrate ESLYFQS: 0.113
- area with substrate EVLYFQS: 0.1
- area with substrate EYLYFQS: 0.224

Variant: Q146G
- area with substrate EALYFQS: 0.137
- area with substrate ECLYFQS: 0.135
- area with substrate EDLYFQS: 0.153
- area with substrate EELYFQS: 0.156
- area with substrate EGLYFQS: 0.098
- area with substrate EKLYFQS: 0.091
- area with substrate ELLYFQS: 0.0988
- area with substrate EPLYFQS: 0.155
- area with substrate ESLYFQS: 0.0911
- area with substrate ETLYFQS: 0.124
- area with substrate EYLYFQS: 0.151

Variant: Q146Y
- area with substrate EALYFQS: 0.117
- area with substrate ECLYFQS: 0.0748
- area with substrate EELYFQS: 0.183
- area with substrate EILYFQS: 0.0947
- area with substrate EPLYFQS: 0.133
- area with substrate EQLYFQS: 0.128
- area with substrate ESLYFQS: 0.0936
- area with substrate EVLYFQS: 0.103
- area with substrate EWLYFQS: 0.0929
- area with substrate EYLYFQS: 0.0104

Variant: G138I
- area with substrate EALYFQS: 0.117
- area with substrate ECLYFQS: 0.0664
- area with substrate EHLYFQS: 0.102
- area with substrate ELLYFQS: 0.07
- area with substrate EMLYFQS: 0.149
- area with substrate EPLYFQS: 0.0986
- area with substrate ESLYFQS: 0.0901
- area with substrate ETLYFQS: 0.048
- area with substrate EVLYFQS: 0.0805
- area with substrate EYLYFQS: 0.0762

Reference: the supplement of paper PMC12217912
